{"source": "PubChem BioAssay AID588342", "about": "(National Center for Advancing Translational Sciences (NCATS), 2011)", "note": "“And” between values parts separate entries of the source, which are not always exact repeats. Equal values may be shown once. Screen size: about 360,000 compounds; about 25,000 (6.9%) were called active. Inconclusive results, whose numbers are uncertain, are shown with a selection of clear calls. Calls follow the shape of the dose curve; as a rule, active = well fitted inhibition curve with a large enough effect; inconclusive = small, poorly fitted or top-dose-only effect; inactive = flat fitted curve, though single readings scatter. Where the call is inconclusive, the potency comes from a doubtful curve fit. Potency is read from the fitted curve at half-maximal effect; tags tell the direction and shape of the fitted curve.", "data": [{"target": "Luciferin 4-monooxygenase (Photinus pyralis) (UniProt P08659)", "sequence (P08659 whole entry, looked up)": "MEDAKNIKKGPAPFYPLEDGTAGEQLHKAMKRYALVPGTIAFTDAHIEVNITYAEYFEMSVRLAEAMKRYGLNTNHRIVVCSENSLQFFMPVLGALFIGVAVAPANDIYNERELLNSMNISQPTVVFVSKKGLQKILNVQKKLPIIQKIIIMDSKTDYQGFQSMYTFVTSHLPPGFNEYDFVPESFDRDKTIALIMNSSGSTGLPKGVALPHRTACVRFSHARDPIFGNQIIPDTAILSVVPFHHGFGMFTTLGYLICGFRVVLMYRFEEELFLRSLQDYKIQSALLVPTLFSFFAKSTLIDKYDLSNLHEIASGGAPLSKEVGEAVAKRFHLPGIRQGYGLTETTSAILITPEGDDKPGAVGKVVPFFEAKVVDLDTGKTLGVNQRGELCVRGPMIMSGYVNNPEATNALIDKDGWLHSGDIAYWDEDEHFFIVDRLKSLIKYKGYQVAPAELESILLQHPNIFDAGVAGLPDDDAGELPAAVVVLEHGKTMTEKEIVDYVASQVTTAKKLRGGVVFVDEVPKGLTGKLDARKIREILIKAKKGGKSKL", "assay": "qHTS profiling assay for firefly luciferase inhibitor/activator using purifed enzyme and Km concentrations of substrates (counterscreen for miR-21 project); also: nearly all actives have a fitted effect of over 55% in size", "details": "purified FLuc, luminescence inhibition; series mostly up to 57.5 µM", "outline": "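Purified P. pyralis luciferase (10nM final) with 10uM D-luciferin and 10uM ATP (Km levels) in 50mM Tris acetate pH 7.5, 10mM Mg acetate, 0.01% Tween-20, 0.05% BSA; qHTS 6-point titration, ~60 µM downward; luminescence read.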", "values": [{"smiles": "Cc1ccc(N/N=C2/CCCNC2=O)cc1", "Potency": "inconclusive: 23.9 µM [inhibitor, partial curve, poor fit]"}, {"smiles": "COc1cccc(NC(=O)CSC2=Nc3ccccc3C3=NC(CC(=O)NCCc4ccccc4)C(=O)N23)c1", "note": "(stereo unspecified)", "Potency": "inactive"}, {"smiles": "Cc1cccc(Nc2nc(N)c([N+](=O)[O-])c(N3CCC(C)CC3)n2)c1", "Potency": "inconclusive: 37.9 µM [inhibitor, partial curve, poor fit]"}, {"smiles": "Cc1cc(C)c2cc(C(=O)Nc3ccc4c(c3)OCO4)[nH]c2c1", "Potency": "inconclusive: 10.7 µM [inhibitor, partial curve, poor fit]"}, {"smiles": "Cc1cccc(NC(=O)NCCN2C(=O)C3C4C=CC(C4)C3C2=O)c1", "note": "(stereo unspecified)", "Potency": "inconclusive: 26.9 µM [inhibitor, partial curve, poor fit]"}, {"smiles": "CCOC(=O)c1ccccc1NC(=O)Cn1c(=O)n(Cc2nc(-c3ccccc3)no2)c(=O)c2ccccc21", "Potency": "inactive"}, {"smiles": "CCOC(=O)CSc1nc(C)c2ccc(C)cc2n1", "Potency": "inconclusive: 37.9 µM [inhibitor, partial curve, poor fit]"}, {"smiles": "Cn1ccc(C(=O)Nc2ccc(Br)cc2Br)n1", "Potency": "active: 3.01 µM"}, {"smiles": "CC1CC1C(=O)OCC(=O)NC(=O)NC12CC3CC(CC(C3)C1)C2", "note": "(stereo unspecified)", "Potency": "inconclusive: 26.9 µM [inhibitor, single point]"}, {"smiles": "O=C(COc1ccc2ccccc2c1Br)N1CCCC1", "Potency": "inconclusive: 21.3 µM [inhibitor, single point]"}, {"smiles": "CC(C)Sc1nc(NCc2ccco2)c2c3c(sc2n1)COC(C)(C)C3", "Potency": "inconclusive: 26.9 µM [inhibitor, single point]"}, {"smiles": "OCCN1CCN(CCCc2c3c(cc4c2CCC4)CCC3)CC1", "Potency": "inactive"}, {"smiles": "Cc1cc(C)c2c(N)c(C(=O)NNC(=O)c3ccccc3)sc2n1", "Potency": "inconclusive: 21.3 µM [inhibitor, single point]"}, {"smiles": "COc1cc(-c2nc3nc[nH]n3c2Nc2ccc(C(C)C)cc2)ccc1O", "Potency": "inconclusive: 13.5 µM [inhibitor, partial curve]"}, {"smiles": "CCOC(=O)c1c(N)n(-c2cccc(OC)c2)c2nc3ccccc3nc12", "Potency": "inactive"}, {"smiles": "Cc1cccc(NC(=O)CCN2C(=O)c3ccccc3C2=O)c1", "Potency": "inactive"}, {"smiles": "NNC(=O)CS(=O)(=O)c1ccc(Cl)cc1", "Potency": "inactive"}, {"smiles": "O=C(Nc1ccn(Cc2ccccc2F)n1)c1ccc(COc2ccc(Cl)cc2Cl)o1", "Potency": "inconclusive: 23.9 µM [inhibitor, partial curve]"}, {"smiles": "Cc1ccc(O)c(C(=O)c2cnn(-c3ccccc3)c2)c1", "Potency": "inconclusive: 16.9 µM [inhibitor, single point]"}, {"smiles": "COc1ccc(CN(C)C(=O)c2ccc(OCC(=O)N3CCOCC3)c(OC)c2)cc1", "Potency": "inconclusive: 19 µM [inhibitor, partial curve, poor fit]"}, {"smiles": "COc1ccc(C(=O)NCCn2cc(SCC(=O)Nc3cccc(C)c3)c3ccccc32)cc1", "Potency": "inconclusive: 13.5 µM [inhibitor, partial curve, poor fit]"}, {"smiles": "Cn1nc(C(=O)NNC(=O)c2ccc(Cl)cc2)ccc1=O", "Potency": "inconclusive: 37.9 µM [inhibitor, partial curve, poor fit]"}, {"smiles": "COc1cccc(N=Nc2ccc3ccccc3c2O)c1", "Potency": "active: 0.338 µM"}, {"smiles": "COc1ccccc1/C=C1\\SC(=S)N(CCC(=O)N2CCCCC2CCO)C1=O", "note": "(stereo unspecified)", "Potency": "inconclusive: 23.9 µM [inhibitor, partial curve]"}, {"smiles": "Cc1cccc(NC(=O)c2cccc(S(=O)(=O)N(C)c3ccccc3)c2)n1", "Potency": "inconclusive: 30.1 µM [inhibitor, partial curve, poor fit]"}, {"smiles": "Cc1cc(C)nc(NC(=O)c2ccc(COc3ccccc3Cl)cc2)c1", "Potency": "inconclusive: 21.3 µM [inhibitor, partial curve, poor fit]"}, {"smiles": "O=C(/C=C/c1ccccc1Cl)c1ccc(O)cc1", "Potency": "active: 9.53 µM"}, {"smiles": "Cc1ccc(/C=C2\\SC(=S)N(CCC(=O)NCCCN3CCOCC3)C2=O)cc1", "Potency": "inconclusive: 21.3 µM [inhibitor, partial curve]"}, {"smiles": "O=C(/C=C/c1cccs1)NCc1ccc2c(c1)OCO2", "Potency": "inconclusive: 21.3 µM [inhibitor, partial curve, poor fit]"}, {"smiles": "Cc1ccn2c(Nc3ccccc3C)c(-c3ccccn3)nc2c1", "Potency": "inconclusive: 21.3 µM [inhibitor, partial curve, poor fit] and inconclusive: 42.6 µM [inhibitor, partial curve, poor fit]"}, {"smiles": "O=C(NC(=S)Nc1cc(-c2nc3ccccc3[nH]2)ccc1Cl)c1ccc2c(c1)OCO2", "Potency": "active: 6.75 µM"}, {"smiles": "Cc1ccc(N(Cc2cc3ccc(C)cc3[nH]c2=O)C(=O)c2ccco2)cc1", "Potency": "inconclusive: 12 µM [inhibitor, partial curve]"}, {"smiles": "Cc1ccccc1/C(N)=N/OC(=O)/C=C/c1ccccc1", "Potency": "inconclusive: 0.849 µM [inhibitor, single point]"}, {"smiles": "COc1cc(C(=O)Nc2nc3nc(-c4ccccc4)cc(=O)n3[nH]2)cc(OC)c1OC", "Potency": "inconclusive: 7.57 µM [inhibitor, partial curve]"}, {"smiles": "Cc1ccn2c(=O)cc(CSc3nnc(NC(=O)c4ccccc4Cl)s3)nc2c1", "Potency": "inconclusive: 23.9 µM [inhibitor, partial curve]"}, {"smiles": "O=C(NC1CCCCC1)c1cc(Nc2cccc(C(F)(F)F)c2)nc2ccccc12", "Potency": "inactive"}, {"smiles": "Cc1ccc(SCc2nc(-c3ccc(C(=O)NCc4ccc(Cl)cc4)cc3)oc2C)cc1", "Potency": "inactive"}, {"smiles": "COc1ccc(C(CC(=O)Nc2ccccc2OC)n2cccc2)cc1", "note": "(stereo unspecified)", "Potency": "inconclusive: 21.3 µM [inhibitor, partial curve, poor fit]"}, {"smiles": "O=C(CSc1nc2ccccc2[nH]1)NCc1ccco1", "Potency": "inactive"}, {"smiles": "COC(=O)c1ccc(CSc2nnc(NCc3ccccc3)s2)o1", "Potency": "inconclusive: 21.3 µM [inhibitor, single point]"}, {"smiles": "C/C(=N\\Nc1ccccc1Cl)c1ccc(-n2ccnc2)cc1", "Potency": "inconclusive: 26.9 µM [inhibitor, single point]"}, {"smiles": "Cc1ccc2nc(/C(C#N)=C\\c3ccc(Oc4ccc([N+](=O)[O-])cn4)cc3)[nH]c2c1", "Potency": "inactive"}, {"smiles": "CCCCOC(=O)Nc1ccc(N(C)C)cc1", "Potency": "active: 3.01 µM"}, {"smiles": "CCCn1c2ccc(C)cc2c2n[nH]c(=S)nc21", "Potency": "inactive"}, {"smiles": "Cc1ccc(C(=O)N(C)c2nnc(-c3ccncc3)s2)cc1", "Potency": "active: 16.9 µM"}, {"smiles": "Cc1cccc(N2CCN(C(=O)NCc3noc4ccccc34)CC2)c1C", "Potency": "inconclusive: 26.9 µM [inhibitor, partial curve, poor fit]"}, {"smiles": "O=C(Nc1nccs1)C(Br)C(Br)c1ccccc1", "note": "(stereo unspecified)", "Potency": "active: 4.78 µM"}, {"smiles": "CC(C)Oc1ccc(C2CC(=O)N(c3ccc(C(=O)O)cc3)C2=O)cc1", "note": "(stereo unspecified)", "Potency": "inactive"}, {"smiles": "Cn1c(SCC(=O)N/N=C/c2cc([N+](=O)[O-])ccc2O)nnc1-c1ccccc1", "Potency": "inactive"}, {"smiles": "CNC(=S)NNC(=O)c1c(C)nc2cc(C)ccn12", "Potency": "inconclusive: 23.9 µM [inhibitor, single point]"}, {"smiles": "COC(=O)CCSc1nc2sc3c(c2c(=O)n1Cc1ccccc1)CCC(C(C)(C)C)C3", "note": "(stereo unspecified)", "Potency": "inactive"}, {"smiles": "CC1=C(C(=O)OC2CCCCCC2)C(c2c(F)cccc2Cl)CC(=O)N1", "note": "(stereo unspecified)", "Potency": "inconclusive: 19 µM [inhibitor, partial curve, poor fit]"}, {"smiles": "COc1ccc(N(Cc2cccs2)C(=O)COc2cccc(Cl)c2)cc1", "Potency": "inconclusive: 33.8 µM [inhibitor, partial curve, poor fit]"}, {"smiles": "COC(=O)c1ccc(C(=O)N(CCN(C)C)c2nc3c(Cl)cccc3s2)cc1", "Potency": "inactive"}, {"smiles": "CCc1ccc(OCC(=O)NNC(=O)c2cnccn2)c(Br)c1", "Potency": "inconclusive: 2.69 µM [inhibitor, partial curve]"}, {"smiles": "CCOC(=O)c1[nH]cnc1N=Nc1c(O)ccc2ccccc12", "Potency": "inconclusive: 9.53 µM [inhibitor, partial curve, poor fit]"}, {"smiles": "CCC(NC(=O)CCc1c(C)c2cc3c(C)c(C)oc3cc2oc1=O)C(=O)N[C@@H](Cc1ccccc1)C(=O)O", "note": "(stereo partly specified)", "Potency": "inconclusive: 26.9 µM [inhibitor, single point]"}, {"smiles": "O=C(Nc1ccc2c(c1)OCCO2)c1ccco1", "Potency": "active: 8.49 µM"}, {"smiles": "O=C(CSC1CC(=O)N(c2ccc(C(=O)O)cc2)C1=O)Nc1ccc2ccccc2c1", "note": "(stereo unspecified)", "Potency": "inconclusive: 26.9 µM [inhibitor, single point]"}, {"smiles": "CSc1ccc(CN(C)C(=O)c2cc(=O)c3ccccc3o2)cc1", "Potency": "inactive"}, {"smiles": "CSc1nc2ccc(NS(=O)(=O)c3ccccc3F)cc2s1", "Potency": "inconclusive: 33.8 µM [inhibitor, single point]"}, {"smiles": "COc1ccc(NC(=O)CSc2nc(N)c3cc4c(nc3n2)CC(C)(C)OC4)cc1", "Potency": "inconclusive: 1.2 µM [inhibitor, full curve, poor fit]"}, {"smiles": "CCOc1ccccc1NC(=O)c1cc2c(Cl)nc3ccccc3c2s1", "Potency": "inactive"}, {"smiles": "CCOC(=O)c1c(OCC)[nH]c2c1cc(O)c1ccccc12", "Potency": "inconclusive: 26.9 µM [inhibitor, partial curve, poor fit]"}, {"smiles": "c1ccc(-c2ccccn2)nc1", "Potency": "inactive"}, {"smiles": "NC(=O)NCCC1=CCCCC1", "Potency": "inactive"}, {"smiles": "COc1ccc(C(=O)COC(=O)c2ccccc2O)c(OC)c1", "Potency": "active: 6.01 µM"}, {"smiles": "Cc1ccc(-n2ncc3c(NCCCN4CCOCC4)ncnc32)cc1", "Potency": "inconclusive: 37.9 µM [inhibitor, partial curve, poor fit]"}, {"smiles": "COCCN=c1scc(C)n1/N=C/C1CC2C=CC1C2", "note": "(stereo unspecified)", "Potency": "inactive"}, {"smiles": "COC(=O)c1ccc(NC(=O)CSc2ccccc2)cc1", "Potency": "active: 26.9 µM"}, {"smiles": "Cc1nc2ccccn2c1-c1csc(Nc2cccc(C(=O)O)c2)n1", "Potency": "inconclusive: 23.9 µM [inhibitor, single point]"}]}]}
